Source: the supplement of paper PMC7726561
Whole data set: some 1,400 sequences, median “thermal melting temperature (Tm) of peptide-HLA complex” near 60, cut for the lowest 2% near 45. The list shows a part of the results.

The sequences below were run against HLA-B*07:02 (assay: thermal melting temperature (Tm) of peptide-HLA complex; higher = more thermostable pHLA complex). Settings: C1R-B*07:02.
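Also: cell lysates heated 10 min at 37–73 °C, remaining pHLA pulled down with pan-class I antibody, peptides quantified by DIA-MS versus 37 °C, Tm where half the complex is lost.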

Compared with LPRSTVINI, APSPLQPAL is higher in thermal melting temperature: 59.9 °C for the first, 62.8 °C for the second.

Compared with VPYGTPLSV, MPKVKTIEL is lower in thermal melting temperature: 62.6 °C for the first, 56.4 °C for the second.

Going from APRLQSEVA to LPRLLPAL, the thermal melting temperature rises from 55.9 °C to 60.8 °C.

First: TPSSSRLEL
Second: TPRPVTEPLL
The thermal melting temperature of the first is lower: 57.8 °C for the first, 61.3 °C for the second.

Going from FPELPKSAL to SPDPLRPLEFL, the thermal melting temperature rises from 61.1 °C to 61.7 °C.

Compared with QPDQTRIVAL, SPKLPVSSL is higher in thermal melting temperature: 61.1 °C for the first, 62.6 °C for the second.

Going from RPRLTSNEKL to RPRPPTLL, the thermal melting temperature rises from 56.7 °C to 62.9 °C.

First: SPRLSQTFL
Second: SPILPITEF
The thermal melting temperature of the first is lower: 60.5 °C for the first, 62.1 °C for the second.

First: SPALPGLKL
Second: VPAARSILAL
The thermal melting temperature of the first is lower: 62.1 °C for the first, 62.7 °C for the second.

First: VPRQPTVTSV
Second: HPRTSITVV
The thermal melting temperature of the first is higher: 58.6 °C for the first, 55.7 °C for the second.

Going from SPGRLAVL to KPNPNQIISV, the thermal melting temperature falls from 58.8 °C to 57.5 °C.

First: SPRITFPSL
Second: YPEPRVLTL
The thermal melting temperature of the first is higher: 62.3 °C for the first, 60 °C for the second.

Going from MPARWLTHL to YPFFRGVTI, the thermal melting temperature rises from 55 °C to 61.8 °C.

Going from VPYLRDLGL to NPRNFSDNQL, the thermal melting temperature falls from 63.1 °C to 53 °C.

First: KPIQRTILM
Second: QPREPQVYTL
The thermal melting temperature of the first is higher: 59.4 °C for the first, 57.9 °C for the second.

First: KPYQTMLVL
Second: RPSTPHTITL
The thermal melting temperature of the first is higher: 61.6 °C for the first, 59.3 °C for the second.

First: WPHDTIGSL
Second: SPYPGLRLI
The thermal melting temperature of the first is higher: 62.1 °C for the first, 61.8 °C for the second.

First: RPKPSSSPVIF
Second: TARPQSSAL
The thermal melting temperature of the first is higher: 60.6 °C for the first, 58 °C for the second.

First: EPRPPHGEL
Second: SPFQSSPLSL
The thermal melting temperature of the first is lower: 55.7 °C for the first, 61.5 °C for the second.

Compared with LPTLPRGLF, SPANTRYLFL is higher in thermal melting temperature: 60.6 °C for the first, 62 °C for the second.

Compared with NPSKKYNIL, KPGPPQLSV is lower in thermal melting temperature: 59.8 °C for the first, 57.7 °C for the second.

Compared with GPRLPWTRL, ITAPPSRVL is higher in thermal melting temperature: 57.9 °C for the first, 58.4 °C for the second.

Going from RPAPALAPA to APREHPFVL, the thermal melting temperature rises from 55.5 °C to 61 °C.

Going from SPFLPGFSQSL to TPKKTTPIL, the thermal melting temperature rises from 52.3 °C to 54.6 °C.

Going from NPAENFRVL to SPAFSTRVL, the thermal melting temperature rises from 56.1 °C to 60.3 °C.

Going from KPRQQQDLVAF to RPTSTIWVSM, the thermal melting temperature rises from 53.5 °C to 59.9 °C.

Compared with AANPNRFITL, GPAPVGRFF is higher in thermal melting temperature: 61.1 °C for the first, 61.5 °C for the second.

Going from KPNANRIALDF to NPEINKAVL, the thermal melting temperature falls from 61.1 °C to 46.1 °C.
